Measurements taken from PubChem BioAssay AID588342 (National Center for Advancing Translational Sciences (NCATS), 2011).
Several values for one entry are separate records, joined by “and”; a condition that tells them apart may be missing. Equal entries are not always repeated. Out of some 360,000 compounds screened, about 25,000 (6.9%) were called active. The inconclusive results got no clear call from the source; some entries with a clear call stand among them for comparison. The call rests on the fitted dose curve; in most records, active means well fitted inhibition curve with a large enough effect; inconclusive means small, poorly fitted or top-dose-only effect; inactive means flat fitted curve, though single readings scatter. Where the call is inconclusive, the potency comes from a doubtful curve fit.

target: Luciferin 4-monooxygenase (Photinus pyralis) (UniProt P08659); test: qHTS profiling assay for firefly luciferase inhibitor/activator using purifed enzyme and Km concentrations of substrates (counterscreen for miR-21 project); details: purified FLuc, luminescence inhibition; activity change, negative = inhibition: at 57.5 µM (top of the series); further: nearly all actives have a fitted effect of over 55% in size;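 on activity change, negative = inhibition: plate controls were vehicle for no effect and reference inhibitor for full effect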
How it was run: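 Purified P. pyralis luciferase (10nM final) with 10uM D-luciferin and 10uM ATP (Km levels) in 50mM Tris acetate pH 7.5, 10mM Mg acetate, 0.01% Tween-20, 0.05% BSA; qHTS 6-point titration, ~60 µM downward; luminescence read.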
Potency means the concentration at half of the fitted maximal effect; tags describe the fitted curve by direction and shape.

Chain of UniProt P08659 (P08659 whole entry, looked up): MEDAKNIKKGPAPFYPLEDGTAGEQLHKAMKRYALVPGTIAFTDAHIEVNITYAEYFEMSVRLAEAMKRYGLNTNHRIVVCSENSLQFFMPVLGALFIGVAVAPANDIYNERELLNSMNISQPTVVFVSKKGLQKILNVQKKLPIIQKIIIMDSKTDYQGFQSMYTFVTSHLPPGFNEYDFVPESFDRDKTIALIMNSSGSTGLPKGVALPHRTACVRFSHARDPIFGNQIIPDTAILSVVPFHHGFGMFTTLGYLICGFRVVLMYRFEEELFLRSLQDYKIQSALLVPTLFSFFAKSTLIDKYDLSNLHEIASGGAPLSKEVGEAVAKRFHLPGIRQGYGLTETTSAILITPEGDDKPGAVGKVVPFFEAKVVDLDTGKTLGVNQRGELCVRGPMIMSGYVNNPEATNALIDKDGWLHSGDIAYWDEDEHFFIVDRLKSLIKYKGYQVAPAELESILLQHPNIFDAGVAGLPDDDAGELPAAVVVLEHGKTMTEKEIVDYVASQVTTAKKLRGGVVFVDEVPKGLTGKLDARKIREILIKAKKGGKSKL

Q: Which Potency does the source give for Cc1ccc(OCCOCCOc2ccc(Br)cc2/C=N\NC(=O)c2ccncc2)cc1 here?
A: inconclusive: 23.9 µM [inhibitor, partial curve]

Q: With CCOC(=O)C(CC)Sc1nc2c(c(=O)[nH]c(=O)n2C)n1CCc1ccccc1 (stereo not drawn) as the compound, how does the “activity change, negative = inhibition” value read?
A: inactive: -11.2%

Q: For CCC(C)NC(=O)c1cc(-c2cccc(OC)c2)on1 (stereo not drawn), which Potency is on record?
A: active: 13.5 µM

Q: With Cc1cccc(CCNC(=O)c2ccc3c(c2)N(Cc2ccccc2F)C(=O)c2ccccc2S3)c1 as the compound, how does the “activity change, negative = inhibition” value read?
A: inactive: -5.71%

Q: O=C(/C=C/c1cccc(O)c1)c1ccc(N2CCOCC2)cc1 was tested. Which Potency did it give?
A: active: 1.2 µM

Q: Which Potency does the source give for Cc1ccc(/C=C/C(=O)NC2CCS(=O)(=O)C2)cc1 (stereo not drawn) here?
A: inconclusive: 37.9 µM [inhibitor, partial curve, poor fit]

Q: Which Potency does the source give for CC1=N/C(=C\c2ccc3c(c2)OCO3)C(=O)N1c1ccc(C(=O)O)cc1 here?
A: inconclusive: 37.9 µM [inhibitor, single point]

Q: Which Potency does the source give for COc1ccc(CCN2C(=O)CC(N3CCOCC3)C2=O)cc1OC (stereo not drawn) here?
A: inconclusive: 6.75 µM [inhibitor, partial curve, poor fit]

Q: With CCCCCCSc1ccc([C@H]2N[C@@](C)(C(=O)OC)[C@H]3C(=O)N(CC)C(=O)[C@@H]23)cc1 as the compound, how does the Potency read?
A: inconclusive: 26.9 µM [inhibitor, partial curve, poor fit]

Q: For Cc1ccc(NC(=O)CN(C)S(=O)(=O)c2cccs2)cc1F, which Potency is on record?
A: inconclusive: 21.3 µM [inhibitor, single point]

Q: How did the Potency turn out when CCOc1ccc(C(=O)NCCn2cc(SCC(=O)Nc3ccc4c(c3)OCCO4)c3ccccc32)cc1 was run?
A: inconclusive: 6.01 µM [inhibitor, partial curve, poor fit]

Q: N#CCc1cnc2ccccc2n1 was tested. Which “activity change, negative = inhibition” value did it give?
A: inactive: -0.373%

Q: How did the Potency turn out when CCN(CC(=O)Nc1ccc(NC(C)=O)cc1)C(=O)c1cc2c(s1)CCCC2 was run?
A: inconclusive: 21.3 µM [inhibitor, partial curve, poor fit]

Q: O=C(NCCc1cccc(Cl)c1)c1cccnc1 was tested. Which Potency did it give?
A: inconclusive: 19 µM [inhibitor, single point]

Q: For O=C(NCCc1c[nH]c2ccccc12)c1cccnc1, which Potency is on record?
A: inconclusive: 26.9 µM [inhibitor, partial curve, poor fit]

Q: Which Potency does the source give for Cc1ccccc1C(=O)Nc1ccc(N(C)C)c2ccccc12 here?
A: inconclusive: 33.8 µM [inhibitor, partial curve, poor fit]

Q: For CCc1ccccc1NC(=O)CNC(=O)c1ccc(-n2cncn2)c([N+](=O)[O-])c1, which “activity change, negative = inhibition” value is on record?
A: inactive: 3.77%

Q: With Cc1ccc2nc(NC(=O)CSCC(=O)OCC(=O)c3ccc(Br)cc3)sc2c1 as the compound, how does the Potency read?
A: inconclusive: 13.5 µM [inhibitor, partial curve]

Q: For CCOC(=O)N/N=C(C)/C=C/c1ccccc1, which Potency is on record?
A: inconclusive: 37.9 µM [inhibitor, partial curve, poor fit]

Q: COc1cc(Cl)c(C)cc1NC(=O)CSc1nnc(CCC(=O)O)c(=O)[nH]1 was tested. Which Potency did it give?
A: inconclusive: 42.6 µM [inhibitor, partial curve, poor fit]

Q: Which Potency does the source give for Cc1ccc(S(=O)(=O)Nc2cc3c(cc2NCc2ccccc2)n(C)c(=O)n3C)c(C)c1 here?
A: inconclusive: 19 µM [inhibitor, partial curve]

Q: For CC1CCN(CCCOc2ccc(Cl)cc2Br)CC1, which Potency is on record?
A: inconclusive: 37.9 µM [inhibitor, partial curve, poor fit]

Q: CCOc1[nH]n(-c2ccccc2)c(=O)c1C=Nc1ccc(OC)cc1 was tested. Which Potency did it give?
A: inconclusive: 26.9 µM [inhibitor, single point]

Q: Cc1[nH]n(-c2cccc(Cl)c2)c(=O)c1-c1ccccc1 was tested. Which Potency did it give?
A: inconclusive: 30.1 µM [inhibitor, single point]

Q: For O=C(CCC1N=C2c3ccccc3N=C(SCc3ccc(F)cc3)N2C1=O)NCc1ccc(F)cc1 (stereo not drawn), which “activity change, negative = inhibition” value is on record?
A: inactive: 0.967%

Q: With Cc1ccc(-c2nc3ccccc3s2)cc1NC(=S)NC(=O)c1ccccc1 as the compound, how does the Potency read?
A: active: 9.53 µM

Q: With O=C(CSCc1cccc(F)c1)NCc1ccccc1 as the compound, how does the Potency read?
A: inconclusive: 19 µM [inhibitor, partial curve] and inconclusive: 23.9 µM [inhibitor, partial curve]

Q: Which “activity change, negative = inhibition” value does the source give for COC(=O)c1c(N2C(=O)[C@H]3[C@@H](C2=O)[C@]2(C(=O)Nc4c(C)cccc42)N2CCC[C@@H]32)sc(C)c1C here?
A: inactive: -2.38%

Q: O=C(CC12CC3CC(CC(C3)C1)C2)NC(=S)NCc1ccco1 was tested. Which “activity change, negative = inhibition” value did it give?
A: inactive: -1.95%

Q: How did the Potency turn out when CCS(=O)(=O)N1Cc2ccccc2CC1C(=O)Nc1nc2ccc(F)cc2s1 (stereo not drawn) was run?
A: active: 15.1 µM

Q: COc1ccc(CNc2nc3ccccc3n2C(C)C)c(O)c1 was tested. Which Potency did it give?
A: inconclusive: 30.1 µM [inhibitor, partial curve, poor fit]

Q: CCOC(=O)c1ccc(NC(=O)CC2C(=O)OCCN2CC)cc1 (stereo not drawn) was tested. Which Potency did it give?
A: inconclusive: 37.9 µM [inhibitor, partial curve, poor fit]

Q: For CC(CC(=O)Nc1ncc([N+](=O)[O-])s1)c1ccccc1 (stereo not drawn), which Potency is on record?
A: inconclusive: 37.9 µM [inhibitor, single point]

Q: COc1ccc(NC(=S)NNC(=S)Nc2cccc(C(F)(F)F)c2)cc1 was tested. Which Potency did it give?
A: inconclusive: 37.9 µM [inhibitor, partial curve, poor fit]

Q: For CCn1ncc(/C=N\NC(=O)c2csc3ccccc23)c1C, which Potency is on record?
A: active: 10.7 µM

Q: For O=C(NCc1ccccn1)c1c(O)c2cccc3c2n(c1=O)CC3, which Potency is on record?
A: inconclusive: 37.9 µM [inhibitor, partial curve, poor fit]

Q: Which Potency does the source give for CCOC(=O)C1CCN(C(=O)c2cc3cc4ccc(OC)cc4nc3o2)CC1 here?
A: inconclusive: 26.9 µM [inhibitor, single point]

Q: With COc1ccc(-n2cnc3cc(NS(=O)(=O)c4ccc(C)cc4)ccc32)cc1 as the compound, how does the “activity change, negative = inhibition” value read?
A: inactive: -0.108%

Q: With COc1cc(C)ccc1NC(=O)Cc1csc(NC(=O)Nc2ccccc2OC)n1 as the compound, how does the “activity change, negative = inhibition” value read?
A: inactive: 5.41%

Q: Nc1c(C(=O)Nc2ccc3c(c2)OCCO3)nnn1Cc1cccc(Br)c1 was tested. Which Potency did it give?
A: inconclusive: 2.69 µM [inhibitor, partial curve]

Q: O=C(Nc1nc2ccc(S(=O)(=O)N3CCCC3)cc2s1)C1CCCCC1 was tested. Which “activity change, negative = inhibition” value did it give?
A: inactive: 0.49%

Q: O=C(CN1CC(=O)Nc2ccccc21)NCCc1ccc(Cl)cc1Cl was tested. Which “activity change, negative = inhibition” value did it give?
A: inactive: -4.18%

Q: With Cn1c(=O)c(C(=O)NCc2ccccc2)c(O)c2ccccc21 as the compound, how does the Potency read?
A: active: 16.9 µM
